In PubChem BioAssay AID485313 (National Center for Advancing Translational Sciences (NCATS), 2010):
Out of some 320,000 compounds screened, about 7,600 (2.4%) were called active. Inconclusive means that the source gave no clear call. Such entries were picked first, then a sample of the others. Calls come from the whole dose curve; as a rule, active = well fitted activation curve with a large enough effect; inconclusive = small, poorly fitted or top-dose-only effect; inactive = no such curve, though single readings can be large or run the other way. Potencies of inconclusive entries are left out as doubtful fits.

Test: qHTS Assay for NPC1 Promoter Activators; note: nearly all actives have a fitted effect of over 60% in size;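 for activation: reporter is driven by a mutant NPC1 promoter; % of control where 0% means no effect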
Details: Huh7 NPC1 promoter luciferase reporter, 24 h; series mostly up to 9.22 µM; activation: at the top concentration
Procedure, shortened: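 Readout is luciferase luminescence, reflecting NPC1 promoter activation in stably transfected Huh7 cells after 24 h compound exposure at 37 °C in reduced-serum medium with 10% FBS.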
Potency is the fitted concentration of half-maximal effect; tags give direction and shape of the fitted curve.

Compound	Potency	activation
O=C(Nc1nc2ccccc2[nH]1)c1ccccc1[N+](=O)[O-]	inconclusive [activator, single point]	
O=C(N/N=C/c1cccnc1)c1ccc2c(c1)OCCO2	inconclusive [activator, partial curve]	
CCCCOC(=O)Nc1cccc(C(=O)OCC)c1	active: 0.224 µM	
COc1ccc2c(CCNC(=O)/C=C/c3ccc(OC)c(OC)c3)c[nH]c2c1		inactive: -10.5%
NC(=O)c1c(NC(=O)c2ccncc2)sc2c1CCCC2	inconclusive [activator, single point]	
NC(=O)c1cc([N+](=O)[O-])c(Cl)cc1NCc1ccccn1		inactive: 1.59%
O=C(Nc1ccc(NC(=O)c2cccs2)cc1)c1ccco1	inconclusive [activator, single point]	
O=c1oc(/C=C/c2ccc([N+](=O)[O-])s2)nc2ccccc12	inconclusive [activator, single point]	
Cc1ccccc1C(=O)/C=C1/SCC(=O)N1C		inactive: -0.0194%
COc1cccc2cc(NC(=O)C3CCCCC3)c(=O)oc12	active: 3.16 µM	
CCCc1ccc(-c2ccc(C(=O)O)cc2)nc1	inconclusive [activator, full curve]	
Cn1cc(Cl)c(C(=O)Nc2nc3ccc([N+](=O)[O-])cc3s2)n1	inconclusive [activator, single point]	
COc1cccc(-c2cc(C(=O)Nc3ccccc3SC)no2)c1	inconclusive [activator, single point]	
COc1ccc(C)c2sc(=NC(=O)c3ccc(C(C)=O)cc3)n(C)c12	active: 0.562 µM	
Cc1ccc(/C=C2\Oc3cc(OCC(=O)NN)ccc3C2=O)o1		inactive: 0.724%
COc1ccc(OC)c(NC(=O)c2cc3c(=O)n4ccccc4nc3n2C)c1		inactive: -7.98%
Brc1ccccc1-c1nc2c3ccccc3ncn2n1	inconclusive [activator, single point]	
CN1CC(=O)N/C1=N/C(=O)Nc1cccc(Cl)c1	inconclusive [activator, partial curve]	
Cc1ccc(C2=C(O)c3ccccc3C(=O)C2=O)cc1		inactive: -0.948%
O=C(c1ccc(-c2ccc([N+](=O)[O-])cc2)o1)N1CCCCC1	active: 3.98 µM	
O=C(Nc1ccc2c(c1)OCO2)C(=O)c1c[nH]c2ccccc12	active: 0.398 µM	
CCC1(c2ccc(F)cc2)NC(=O)N(CC(=O)Nc2ccc(C)c(S(=O)(=O)N3CCOCC3)c2)C1=O (stereo unspecified)		inactive: -2.83%
COc1cccc(OCc2cc(C(=O)N3CCN(C(C)=O)CC3)no2)c1	inconclusive [activator, partial curve]	
O=C(c1ccccc1)c1cnc(-c2ccccc2)s1	active: 0.501 µM	
Cc1cc(C(=O)Nc2ccc3ccccc3c2)c(C)o1	active: 1.41 µM	
COc1ccc(OC)c2c1sc(=NC(=O)C1COc3ccccc3O1)n2C (stereo unspecified)	inconclusive [activator, single point]	

Compound	Potency	activation
Cc1ccc(-c2cc(C(=O)NC3=NCCS3)c3ccccc3n2)cc1C		inactive: 0.659%
COc1cc(CNc2ncn[nH]2)ccc1OCc1cccc(C)c1	inconclusive [activator, partial curve]	
Cc1ccc(COc2coc(CO)cc2=O)cc1	inconclusive [activator, single point]	
CCC(=O)Nc1cccc(-c2cn3ccccc3n2)c1	inconclusive [activator, single point]	
O=C(/C=C/Nc1ccc(F)cc1F)c1ccco1	inconclusive [activator, single point]	
CCN(CC1CCCO1)C(=O)c1cc(COc2cc(C)c(Cl)c(C)c2)on1 (stereo unspecified)	active: 3.16 µM	
Cc1ccc2[nH]c(=O)c(CN(CCc3ccccc3)C(=O)N3CCOCC3)cc2c1		inactive: 2.52%
Cc1nnc(SCC(=O)Nc2nc3c(s2)CC(C)CC3)s1 (stereo unspecified)	inconclusive [activator, partial curve]	
O=C(NCC(c1ccco1)N1CCN(c2ccccc2)CC1)c1ccc2c(c1)OCO2 (stereo unspecified)		inactive: -10.3%
CC(C)CC(=O)Nc1ccc2oc(-c3ccncc3)nc2c1	inconclusive [activator, partial curve]	
CCC(=O)Nc1nnc(/C=C/c2ccccc2)s1	inconclusive [activator, single point]	
CSCCC(NC(=O)c1ccc(Cl)cc1Cl)C(=O)NCc1ccncc1 (stereo unspecified)		inactive: -1.42%
COC(=O)c1ccc2nc(-c3ccc4c(c3)OCO4)cn2c1	active: 0.224 µM	
COCc1nnc(NC(=O)c2cc3ccccc3o2)s1	inconclusive [activator, single point]	
O=C(Nc1ccc(F)c(F)c1)NC1CCCCC1	inconclusive [activator, partial curve]	
CCCN1CCC(=O)N([C@H](CSc2ccc(OC)cc2)c2ccccc2)CC1	inconclusive [activator, partial curve]	
N/C(=N\OC(=O)/C=C/c1ccccc1)c1ccccn1	inconclusive [activator, single point]	
Cc1cc(C)n(-c2ccc(C(=O)Nc3sccc3C(N)=O)cc2)n1	inconclusive [activator, single point]	
CC(=O)Nc1nc(-c2cc([N+](=O)[O-])cs2)cs1		inactive: 0.865%
Oc1ccc(-c2cnc(-c3ccc(O)cc3)nc2)cc1	active: 1.12 µM	
COc1ccc2cc3c(N)nn(C(=O)c4ccc(Cl)c([N+](=O)[O-])c4)c3nc2c1		inactive: 20.3%
Oc1ccc(-c2c(C3=CCCCC3)sc3ccccc23)cc1		inactive: -0.0951%
COc1cccc2c1C(=O)O/C2=C/c1ccc2c(c1)OCO2	inconclusive [activator, single point]	
O=C(CN1C(=O)c2ccccc2S1(=O)=O)c1ccccc1F	inconclusive [activator, partial curve]	
COc1ccc(S(=O)(=O)N2CCCC(C(=O)Nc3cccnc3)C2)cc1Cl (stereo unspecified)		inactive: -3.8%
